For this assay, the target named is human D374Y PCSK9 (Homo sapiens, UniProt Q8NBP7, D374Y/E620G/G670E/V474I). As to the kind of experiment: Receptor ligand blocking screen / functional screening of hybridoma antibodies. It counts as binding. As to the method: To screen for the antibodies that block PCSK9 binding to LDLR an assay was developed using the D374Y PCSK9 mutant. […] The following protocol was employed in the receptor ligand blocking screen: Costar 3702 medium binding 384 well plates (Corning Life Sciences) were employed in the screen. The plates were coated with goat anti-LDLR (R&D Cat # AF2148) at 2 μg/ml in 1×PBS/0.05% Azide at a volume of 40 μl/well. The plates were incubated at 4° C. overnight. The plates were then washed using a Titertek plate washer (Titertek, Huntsville, Ala.). A 3-cycle wash was performed. The plates were blocked with 90 μl of 1×PBS/1% milk and incubated approximately 30 minutes at room temperature. The plates were then washed using the Titertek plate washer. A 3-cycle wash was performed. The capture sample was LDLR (R&D, Cat #2148LD/CF), and was added at 0.4 μg/ml in 1×PBS/1% milk/10 mM Ca^2+ at a volume of 40 μl/well. The plates were then incubated for 1 hour and 10 minutes at room temperature. […] OD's were read immediately at 450 nm using a Titertek plate reader. […]
human D374Y PCSK9, sequence (Q8NBP7 153-692 D374Y/V474I/E620G/G670E): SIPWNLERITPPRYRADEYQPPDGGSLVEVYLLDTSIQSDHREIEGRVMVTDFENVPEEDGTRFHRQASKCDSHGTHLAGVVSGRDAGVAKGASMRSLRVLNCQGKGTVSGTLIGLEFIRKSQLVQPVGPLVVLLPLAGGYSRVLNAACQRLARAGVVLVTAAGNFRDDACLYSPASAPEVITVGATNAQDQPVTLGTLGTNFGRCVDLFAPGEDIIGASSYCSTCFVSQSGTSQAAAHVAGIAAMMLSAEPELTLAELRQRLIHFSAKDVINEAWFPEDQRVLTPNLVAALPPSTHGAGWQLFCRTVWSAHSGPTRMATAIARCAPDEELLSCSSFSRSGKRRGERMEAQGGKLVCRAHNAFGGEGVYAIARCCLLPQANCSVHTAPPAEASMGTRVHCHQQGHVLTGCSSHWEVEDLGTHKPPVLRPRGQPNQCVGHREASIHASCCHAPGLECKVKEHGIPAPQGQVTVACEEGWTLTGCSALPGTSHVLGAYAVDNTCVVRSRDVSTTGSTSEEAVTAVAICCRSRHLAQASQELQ
Limiting dilution was used to isolate a manageable number of clones from each line. […] The concentration and potency of the antibodies to PCSK9 in the supernatants of those cultures were determined by ELISA and by in vitro functional testing, as described herein.

B1: 9C9: anti-PCSK9 ABP, light/heavy variable region SEQ ID NO 30/64 (antibody, listed as Homo sapiens, V domains shown)
VH: EVQLVESGGGLVQPGGSLRLSCVVSGFTFSSYWMSWVRQAPGKGLEWVANIKQDGSEKYYVDSVKGRFTISRDNAKNSLYLQMNSLRAEDTAVYYCARESNWGFAFDIWGQGTMVTVSS
VL: QSVLTQPPSASGTPGQRVTISCSGSSSNIGSKTVNWYQQVPGTAPKLLIYRNNQRPLGVPDRFSGSKSGTSASLAISGLQSEDEADYYCAAWDDSLNWVFGGGTKLTVL
For the molecule B1, the neutralizing ability entry is “weak neutralizers”.
